Test results published in PubChem BioAssay AID1963576 (National Center for Advancing Translational Sciences (NCATS), 2024).
About 60 (0.1%) of roughly 46,000 compounds were called active. About 3% were inconclusive and are not listed. Calls follow the shape of the dose curve; as a rule, active = well fitted inhibition curve with a large enough effect; inconclusive = small, poorly fitted or top-dose-only effect; inactive = no such curve, though single readings can be large or run the other way. This is one part of the list.

experiment: Primary qHTS assay for Inhibitors of ovarian cancer metastasis using an organotypic tumor microenvironment (TME) model.; also: nearly all actives have a fitted effect of over 65% in size;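 as to activity change, negative = inhibition: plate controls were DMSO wells for no effect and tomatine positive control wells for full effect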; details: SKOV3ip1-GFP adhesion/invasion on 3D omental model, fluorescence; series mostly up to 45.8 µM; activity change, negative = inhibition: at the top concentration
Summary of the method: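 A 3D layer of primary human omental fibroblasts, mesothelial cells, fibronectin and collagen I, grown 48 hr, received SKOV3ip1-GFP cells in serum-free medium plus compounds at 0.36-46 umol/L. After 2 hr RT and 16 hr 37 C, fixed adherent GFP cells were counted; normalized to DMSO and tomatine.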

| Structure (SMILES) | activity change, negative = inhibition | outcome |
| --- | --- | --- |
| Cc1ccccc1Nc1c(-c2ccccc2O)nc2sccn12 | inactive: -5.21% | – |
| CC(C)Sc1ncc(Cl)c(C(=O)Nc2c(C(=O)Nc3ccccc3)oc3ccccc23)n1 | – | inactive |
| O=C1c2oc3ccccc3c(=O)c2C(c2cccc(O)c2)N1Cc1ccc(F)cc1 (configuration not stated) | inactive: 4.59% | – |
| COc1cc(C2C(C(=O)Nc3ccc(C)cc3C)=C(C)Nc3nc(SCc4ccccc4)nn32)cc(OC)c1OC (configuration not stated) | inactive: -9.52% | – |
| CCN(c1ccccc1)S(=O)(=O)c1nnc(NC(=O)C(C)Oc2ccccc2)s1 (configuration not stated) | inactive: -12.7% | – |
| COc1ccc(N(C(=O)c2ccc(C)cc2)S(=O)(=O)c2ccc(Cl)cc2)cc1 | inactive: -0.347% | – |
| CCOC(=O)Cc1ccc(NC(=O)N2CCC(CN3CCC(C)CC3)CC2)cc1 | inactive: 0.0932% | – |
| CCc1cccc(NC(=O)c2sc3nc[nH]c(=O)c3c2C)c1 | inactive: -0.278% | – |
| O=C1CN(C(=O)c2ccc(S(=O)(=O)N3CCCC3)cc2)C(c2ccc(F)cc2)c2cc(F)ccc2N1 (configuration not stated) | inactive: -4.02% | – |
| CCc1ccc(NS(=O)(=O)c2ccc3[nH]cc(C(=O)N4CCCCCC4)c(=O)c3c2)cc1 | inactive: 8.73% | – |
| Cc1cccc(-c2nnc(SCC(=O)NC3CCCCC3)o2)c1 | inactive: 0.292% | – |
| CCOc1ccc(CCNC(=O)c2ccc(C)c(-n3c(C)nc4cccnc43)c2)cc1OCC | inactive: 8.59% | – |
| Nc1[nH]c(=O)ncc1F | inactive: 2.81% | – |
| Cc1ccc(CNC(=O)c2cnn3c(C)c(Cc4c(F)cccc4Cl)c(C)nc23)cc1 | inactive: 3.25% | – |
| Cc1ccc2oc3c(c(=O)c2c1)C(c1cccc(O)c1)N(CCCN1CCOCC1)C3=O (configuration not stated) | inactive: -2.47% | – |
| CCN(Cc1ccccc1)C(=O)c1cc2ccc3cccnc3c2[nH]1 | inactive: 4.36% | – |
| CCOc1ccccc1NC(=O)c1cc2ccc3cccnc3c2[nH]1 | – | inactive |
| COc1ccc(N(Cc2cccs2)C(=O)COc2ccc([N+](=O)[O-])cc2)cc1 | inactive: -6.43% | – |
| Cc1cc(Br)ccc1NC(=O)CN1C(=O)c2cccnc2Sc2ccccc21 | inactive: -6.34% | – |
| CCOc1ccc(C(=O)Nc2cc(-c3ccccc3)no2)cc1 | inactive: 1.82% | – |
| O=C(c1ccco1)n1nc(-c2ccc(Cl)cc2)nc1NCc1ccc(F)cc1 | inactive: 25.6% | – |

| Structure (SMILES) | activity change, negative = inhibition | outcome |
| --- | --- | --- |
| CN1CCSc2ccc(C(=O)NCc3ccccc3)cc21 | inactive: -5.47% | – |
| CCCCN(Cc1ccco1)C(=O)Cn1ncc2c([nH]c3ccccc32)c1=O | inactive: -0.794% | – |
| CN1c2ccccc2C(=O)N2CCc3c([nH]c4ccccc34)C21 (configuration not stated) | inactive: -0.694% | – |
| Cc1cccc(Cn2cccc2CNS(=O)(=O)c2ccc(C)c(C)c2)c1 | inactive: 9.55% | – |
| Cc1nc(-n2nc(C)c(Cc3ccc4c(c3)OCO4)c2C)sc1C(=O)Nc1ccc(Cl)cc1 | inactive: -1.29% | – |
| CCCOc1cccc(C2c3c(oc4ccc(F)cc4c3=O)C(=O)N2Cc2ccc3c(c2)OCO3)c1 (configuration not stated) | inactive: 0.184% | – |
| Cc1ccc(-n2cnc3cc(C(=O)NCc4ccccc4Cl)ccc32)c(C)c1 | inactive: -10.4% | – |
| COc1ccc(CC(=O)NCc2ccc3c(c2)CCN3C(=O)c2cccc(C)c2)cc1 | – | inactive |
| Cc1ccc2nc(N3CCN(c4ccccc4F)CC3)c3nnnn3c2c1 | – | inactive |
| Clc1ccccc1Nc1ncnc2c1nc1n2CCCCC1 | – | inactive |
| O=C(Nc1ccc2nc(SCCOc3ccccc3)sc2c1)c1ccc2c(c1)OCO2 | – | inactive |
| CCOC(=O)c1scc(-c2ccc(C)cc2)c1S(=O)(=O)Nc1ccc(OC)c(Cl)c1 | inactive: -2.93% | – |
| Cc1cccc(NS(=O)(=O)c2ccc3nc(-c4ccccc4)[nH]c3c2)c1C | – | inactive |
| Cc1ccc(NC(=O)Cn2c(=O)n(CCC(=O)NCc3ccccc3Cl)c(=O)c3ccccc32)c(C)c1 | inactive: -2.46% | – |
| CCOCCCNc1nc2cc(OC)c(OC)cc2c2nc(-c3ccccc3)nn12 | inactive: 2.56% | – |
| COc1ccc(C2C(C(=O)Nc3ccccc3)=C(C)Nc3nc(-c4ccccc4Cl)nn32)cc1OC (configuration not stated) | inactive: -0.765% | – |
| Cc1ccc(CNC(=O)CN(c2cc(C)cc(C)c2)S(=O)(=O)c2c(C)noc2C)cc1 | inactive: 8.3% | – |
| O=C(CSc1cn(CC(=O)N2CCCC2)c2ccccc12)Nc1ccccc1C(F)(F)F | inactive: 1.89% | – |
| Cc1cccc(Cn2c(=O)n(CC3CCC(C(=O)N4CCC(C)CC4)CC3)c(=O)c3sccc32)c1 (configuration not stated) | inactive: -1.06% | – |
| COc1cc2[nH]c(=O)n(CCCCCC(=O)N3CCN(c4ccc(Cl)cc4)CC3)c(=O)c2cc1OC | inactive: -11.2% | – |
| Cc1[nH]nc2ccc(-c3cncc(OC[C@@H](N)Cc4ccccc4)c3)cc12 | inactive: 15.3% | – |

| Structure (SMILES) | activity change, negative = inhibition | outcome |
| --- | --- | --- |
| O=C(Nc1cccc(Br)c1)c1cc(-c2ccc3c(c2)OCCO3)on1 | inactive: -7.21% | – |
| COc1cc2nc(NCc3ccccc3)n3nc(-c4ccccc4)nc3c2cc1OC | inactive: 5.73% | – |
| COc1ccc2c(c1)cc1c(=O)n(CC(=O)NCCc3ccccc3)nc(C)n12 | inactive: -9.97% | – |
| CCOC(=O)Cc1ccc(NC(=O)N2CC(C)Oc3ccc(Cl)cc32)cc1 (configuration not stated) | inactive: -14.8% | – |
| COC(=O)c1ccccc1NC(=O)c1ccc2c(Cl)c3c(nc2c1)CCCC3 | – | inactive |
| Cc1nc2ccn(Cc3cccs3)c(=O)c2cc1C(=O)N1CCN(c2ccccc2)CC1 | inactive: 4.61% | – |
| COc1ccc(-n2c(=O)c3ccc(C(=O)NCc4ccc(C)cc4)cc3n(Cc3ccc(C)cc3)c2=O)cc1 | inactive: 15.7% | – |
| Cc1ccc2c(c1)N(CC(=O)NCCCN1CCCCC1C)C(=O)c1cccnc1O2 (configuration not stated) | – | inactive |
| Cc1ccc2c(c1)N(S(=O)(=O)c1ccc3c(c1)NC(=O)CC(=O)N3)CCO2 | inactive: -5.82% | – |
| Cc1ccccc1CNCCSc1nnnn1-c1ccccc1 | inactive: 6.66% | – |
| Cc1ccc(-n2c(=O)c3ccc(C(=O)NCc4ccco4)cc3n(Cc3ccc(Cl)cc3)c2=O)cc1 | inactive: -0.367% | – |
| Cc1ccc(-n2nc3c(=O)n(CC(=O)NCc4ccco4)nc(C)c3c2C)cc1 | inactive: -4.41% | – |
| Cc1cc(C)c2sc(N3CCN(C(=O)C4CC4)CC3)nc2c1 | inactive: -9.81% | – |
| CSc1ccc(CCNc2ncnc3onc(-c4ccc(Cl)cc4)c23)cc1 | – | inactive |
| Cc1nc2nc(SCC(=O)N(Cc3ccccc3)C(C)C)nn2c(C)c1Cc1ccccc1Cl | inactive: -0.317% | – |
| COC(=O)c1cc2occc2n1Cc1nc(-c2cccc(Br)c2)oc1C | inactive: 1.62% | – |
| COc1ccc(C(=O)c2sc(Nc3cc(Cl)ccc3C)nc2N)cc1OC | inactive: -10.7% | – |
| Cc1cc(C)c(NC(=O)Cn2c(=O)n(-c3ccc(F)cc3)c(=O)c3c(C)c(C(=O)N(C)C)sc32)c(C)c1 | inactive: -0.527% | – |
| CCc1ccc2ncc3c(-c4ccc(C)cc4)nn(CC(=O)Nc4ccc(C)cc4)c3c2c1 | inactive: 5.59% | – |
| CCOC(=O)c1cnc2ccc(Cl)cc2c1Nc1ccc(OCC)cc1 | inactive: 0.555% | – |
